This is an account of results in the supplement of paper PMC9446081.

Screen size: about 39,000 compounds; about 220 (0.56%) showed activity. The list shows a part of the results.
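Note: static incubation at 37 °C against the wild-type strain, values averaged over two biological replicates.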

The experiment relates to Escherichia coli K-12 BW25113. Briefly: relative growth (OD600 normalised to plate interquartile mean) (fraction); higher = less growth inhibition, active = 0.2 or less. Conditions: 50 µM; LB; incubation time: overnight (16-24 h).
As for `Cc1noc(C)c1NC(=O)Nc1ccc2c(c1)CC(=O)N([C@@H](C)CO)C[C@@H](C)[C@H](CN(C)Cc1ccc(Cl)c(Cl)c1)O2`, the relative growth was inactive: 1.01.
The result for `CN1CCN(C(=O)C[C@@H]2CC[C@@H]3[C@H](COc4ccc(NC(=O)c5ccc(F)c(F)c5)cc4C(=O)N3C)O2)CC1` reads inactive: 0.986; that for `C[C@H]1CN([C@@H](C)CO)C(=O)Cc2cc(NC(=O)CCCCCC(=O)Nc3ccccc3N)ccc2O[C@@H]1CN(C)Cc1ccccc1`, inactive: 0.966; that for `C[C@@H](N)C12CC3CC(CC(C3)C1)C2`, inactive: 0.971.
In the case of `Cc1cc(C(=O)Nc2cccc3c2O[C@H](CN(C)C(=O)NC(C)C)[C@@H](C)CN([C@@H](C)CO)C3=O)n(C)n1` it was inactive: 1.01.
The result for `C[C@@H]1CCCCO[C@H](CN(C)CC2CC2)[C@H](C)CN([C@@H](C)CO)C(=O)c2cc(NC(=O)Nc3ccc(C(F)(F)F)cc3)ccc2O1` reads inactive: 0.856; that for `C[C@@H]1CN([C@@H](C)CO)S(=O)(=O)c2ccc(C#CCN(C)C)cc2O[C@@H]1CN(C)C(=O)c1ccccc1F`, inactive: 0.998.
On to `CC[C@@H](N)c1ncnn1CC`, for which the relative growth is inactive: 1.
In the case of `CO[C@@H]1CN(C)C(=O)c2ccc(NS(C)(=O)=O)cc2OC[C@H](C)N(C(=O)C2CCOCC2)C[C@@H]1C`, the relative growth was inactive: 0.973.
In the case of `C[C@H](O)C#Cc1ccc2c(c1)O[C@H](CN(C)C(=O)Nc1ccccc1)[C@@H](C)CN([C@H](C)CO)S2(=O)=O` it was inactive: 0.994; in that of `CN(C)CCN(Cc1ccccc1)c1ccccn1.O=C(O)CC(O)(CC(=O)O)C(=O)O`, inactive: 0.763.
In the case of `COC(=O)C1=C(C)NC(C)=C(C(=O)OCCCN2CCC(c3ccccc3)(c3ccccc3)CC2)[C@H]1c1cccc([N+](=O)[O-])c1`, the relative growth was inactive: 1.02.
The result for `CCCN(C)C[C@@H]1OCCCC[C@H](C)Oc2ccc(NC(=O)c3ccccc3)cc2C(=O)N([C@H](C)CO)C[C@@H]1C` reads inactive: 1.
The result for `COC1=C(OC)C(=O)C(CC=C(C)CCC=C(C)CCC=C(C)CCC=C(C)CCC=C(C)CCC=C(C)CCC=C(C)CCC=C(C)CCC=C(C)CCC=C(C)C)=C(C)C1=O` reads inactive: 0.941.
The result for `C[C@H]1CN([C@@H](C)CO)C(=O)Cc2cc(NC(=O)Cn3cnnn3)ccc2O[C@H]1CN(C)Cc1ccccc1` reads inactive: 0.979; that for `C=CC[C@H](CC(=O)N(CCO)Cc1ccccc1)C(=O)N[C@H](COC(=O)[C@@H](CC=C)Cc1ccc(F)cc1)Cc1c[nH]c2ccccc12`, inactive: 1.1; that for `C[C@@H]1CN([C@H](C)CO)C(=O)c2cc(-c3cccc(C(=O)N(C)C)c3)cnc2O[C@H]1CN(C)C(=O)Cc1ccccn1`, inactive: 0.996.
Take `C[C@@H]1CN([C@@H](C)CO)C(=O)c2cc(NC(=O)c3ccccc3)ccc2O[C@@H](C)CCCCO[C@H]1CN(C)S(=O)(=O)c1ccccc1`: the relative growth was inactive: 1.03.
For the compound `Cc1noc(C)c1S(=O)(=O)Nc1ccc2c(c1)C(=O)N([C@H](C)CO)C[C@@H](C)[C@@H](CN(C)Cc1ccc(Oc3ccccc3)cc1)O2`, the relative growth was inactive: 0.995.
In the case of `COc1ccccc1S(=O)(=O)N[C@H]1CC[C@@H](CCNC(=O)C2CCOCC2)O[C@@H]1CO` it was inactive: 1; in that of `C[C@H](CO)N1C[C@H](C)[C@@H](CN(C)S(=O)(=O)c2ccccc2)OCCCC[C@H](C)Oc2ccc(NS(=O)(=O)c3ccc(Cl)cc3)cc2C1=O`, inactive: 0.996.
The result for `Cc1ccccc1NC(=O)C(C)(C)C` reads inactive: 1.02; that for `Cc1ccc(S(=O)(=O)Nc2ccc3c(c2)C(=O)N([C@@H](C)CO)C[C@@H](C)[C@H](CN(C)S(=O)(=O)c2ccccc2)O3)cc1`, inactive: 1; that for `C[C@@H]1CN([C@@H](C)CO)C(=O)c2cc(NC(=O)Cc3ccccc3)ccc2O[C@@H](C)CCCCO[C@@H]1CN(C)Cc1ccc2c(c1)OCO2`, inactive: 1.04.
The result for `C[C@@H]1CN([C@H](C)CO)S(=O)(=O)c2ccc(C#Cc3ccc(F)cc3)cc2O[C@H]1CN(C)C(=O)c1ccccn1` reads inactive: 0.998; that for `C[C@@H]1CN([C@H](C)CO)C(=O)c2cc(NS(=O)(=O)c3ccc(F)cc3)ccc2O[C@H]1CN(C)C(=O)Nc1cccc2ccccc12`, inactive: 1.03.
As to `O=C(NCC(F)(F)F)[C@@H]1c2ccccc2C(=O)N(Cc2ccccc2C(F)(F)F)[C@H]1c1ccc(CO)cc1`, the relative growth was inactive: 0.974.
The result for `C[C@@H]1CCCCO[C@@H](CN(C)C(=O)c2ccccc2)[C@@H](C)CN([C@H](C)CO)C(=O)c2cc(NC(=O)Nc3ccccc3)ccc2O1` reads inactive: 1.02.
The result for `CC(C)NCC(O)COc1ccc(CC(N)=O)cc1` (stereo unspecified) reads inactive: 0.992; that for `COc1ccc(NC(=O)Nc2ccc3c(c2)C(=O)N([C@@H](C)CO)C[C@H](C)[C@H](CN(C)Cc2ccc4c(c2)OCO4)OCCCC[C@H](C)O3)cc1`, inactive: 0.992.
In the case of `CCCc1nc2c(=O)n(C)c(=O)[nH]c2n1C` it was inactive: 0.999.
For the compound `Cc1c(C(N)=O)sc2[nH]cnc(=O)c12`, the relative growth was inactive: 1.02.
As to `C[C@H]1CN([C@@H](C)CO)C(=O)c2cccc(NC(=O)c3cnccn3)c2O[C@H]1CN(C)Cc1ccncc1`, the relative growth is inactive: 1.01.
In the case of `C[C@@H]1CN([C@H](C)CO)C(=O)Cc2cc(NS(=O)(=O)c3ccccc3)ccc2O[C@H]1CN(C)Cc1ccc(-c2ccccc2)cc1`, the relative growth was inactive: 1.02.
The result for `O=C(C[C@H]1CC[C@H]2[C@@H](COC[C@@H](O)CN2S(=O)(=O)c2ccc(Oc3ccccc3)cc2)O1)NCCN1CCCCC1` reads inactive: 1; that for `C[C@@H]1CN([C@H](C)CO)C(=O)c2cc(NC(=O)CCCCCC(=O)Nc3ccccc3N)ccc2O[C@@H](C)CCCCO[C@@H]1CN(C)C(=O)Cc1ccccc1`, inactive: 1; that for `CO[C@H](CN(C)C(=O)c1ccc2c(c1)OCO2)[C@@H](C)CN([C@@H](C)CO)S(=O)(=O)c1ccc(C)cc1`, inactive: 1.04.
The result for `C[C@@H]1CCCCO[C@H](CN(C)Cc2ccc(C(=O)O)cc2)[C@H](C)CN([C@@H](C)CO)C(=O)c2cc(NS(=O)(=O)c3ccccc3)ccc2O1` reads inactive: 0.989.
Take `CO[C@@H](C(=O)N(C)C[C@H]1OCc2ccccc2-c2c(n(C)c3ccccc23)C(=O)N([C@H](C)CO)C[C@@H]1C)c1ccccc1`: the relative growth is inactive: 1.03.
In the case of `Cn1c(=O)n2n(c1=O)[C@H](C1CC1)C=C1CN3[C@@H]([C@H](Cc4ccccc4)OC(=O)[C@@H]3Cc3ccc(-n4cc(C(=O)NO)nn4)cc3)[C@@H]12` it was inactive: 1.02.
In the case of `C[C@@H]1CN([C@@H](C)CO)C(=O)c2cc(NS(=O)(=O)c3ccccc3)ccc2O[C@@H](C)CCCCO[C@H]1CN(C)S(=O)(=O)c1ccc(Cl)cc1` it was inactive: 1.02.
In the case of `COc1ccc(S(=O)(=O)N(C)C[C@H]2OCCCC[C@@H](C)Oc3ccc(NC(=O)Nc4ccc(C(F)(F)F)cc4)cc3C(=O)N([C@@H](C)CO)C[C@@H]2C)cc1` it was inactive: 1.05; in that of `C[C@@H]1CN([C@H](C)CO)S(=O)(=O)c2ccc(C#CCN(C)C)cc2O[C@H]1CN(C)C(=O)C1CCCCC1`, inactive: 0.966.
As to `C[C@H](CO)N1C[C@H](C)[C@H](CN(C)Cc2ccc(Cl)c(Cl)c2)Oc2ccc(NC(=O)C3CCCCC3)cc2CC1=O`, the relative growth is inactive: 1.03.
The result for `COC(=O)C[C@H]1CC[C@@H]2[C@H](COC[C@@H](O)CN2S(=O)(=O)c2ccc(F)cc2)O1` reads inactive: 1.01.
The result for `Cc1ccc(S(=O)(=O)Nc2ccc3c(c2)C(=O)N([C@@H](C)CO)C[C@H](C)[C@@H](CN(C)S(=O)(=O)c2ccc(F)cc2)O3)cc1` reads inactive: 1.01.
In the case of `Cc1noc(C)c1S(=O)(=O)N(C)C[C@@H]1OCCCC[C@@H](C)Oc2ccc(NS(C)(=O)=O)cc2C(=O)N([C@@H](C)CO)C[C@H]1C` it was inactive: 0.992; in that of `Cn1cnc(CCNC(=O)C[C@@H]2CC[C@@H]3[C@H](COC[C@H](O)CN3C(=O)Nc3ccc(Cl)cc3)O2)c1`, inactive: 0.996; in that of `C[C@H](CO)N1C[C@H](C)[C@H](CN(C)C(=O)c2ccc3c(c2)OCO3)Oc2cc(-c3cccnc3)ccc2S1(=O)=O`, inactive: 0.99.
Take `CC(C)(O)C#Cc1ccc([C@H]2[C@@H](CO)N3CCCCN(S(C)(=O)=O)C[C@H]23)cc1`: the relative growth was inactive: 0.98.
The result for `CN1C(=O)c2cc(NC(=O)C3CCOCC3)ccc2OC[C@@H]2O[C@@H](CC(=O)NCc3ccccc3F)CC[C@H]21` reads inactive: 1.02.
In the case of `O[C@H]1CCCSc2ccccc21` it was inactive: 0.999.
In the case of `C[C@@H]1CN([C@H](C)CO)C(=O)Cc2cc(NC(=O)Cn3cnnn3)ccc2O[C@H]1CN(C)S(=O)(=O)c1cn(C)cn1` it was inactive: 0.995.
In the case of `CC(C)Nc1ncnc(N)c1[N+](=O)[O-]`, the relative growth was inactive: 0.972.
The result for `C[C@H](CO)N1C[C@H](C)[C@H](CN(C)Cc2ccc(Oc3ccccc3)cc2)Oc2ccc(NC(=O)Nc3ccc(C(F)(F)F)cc3)cc2C1=O` reads inactive: 1.01.
The result for `C[C@H]1CN([C@@H](C)CO)C(=O)c2cccc(NS(=O)(=O)c3cn(C)cn3)c2O[C@H]1CN(C)S(C)(=O)=O` reads inactive: 0.989; that for `NNc1ccc2c(N)[nH]nc2c1`, inactive: 1.01.
In the case of `Cc1noc(C)c1S(=O)(=O)N(C)C[C@H]1OCCCC[C@@H](C)Oc2ccc(NS(=O)(=O)c3cn(C)cn3)cc2C(=O)N([C@H](C)CO)C[C@@H]1C` it was inactive: 0.968; in that of `CCCCCCCC(=O)OCC(COC(=O)CCCCCCC)OC(=O)CCCCCCC`, inactive: 1.06; in that of `CCOC(=O)c1cc2c(c(-c3cccc(-c4cccc(OC)c4)c3)n1)[C@@H](CCO)N(S(=O)C(C)(C)C)C2` (stereo partly specified), inactive: 1.
Consider `COc1ccc(S(=O)(=O)N(C)C[C@H]2Oc3ccc(NC(=O)Nc4c(C)noc4C)cc3C(=O)N([C@@H](C)CO)C[C@H]2C)cc1`, for which the relative growth is inactive: 1.01.
